PubChem BioAssay AID493208 (National Center for Advancing Translational Sciences (NCATS), 2011)
The campaign covered roughly 44,000 compounds. About 340 (0.77%) were called active. Another 5% or so got no clear call; they are omitted. Calls follow the shape of the dose curve; as a rule, active = well fitted inhibition curve with a large enough effect; inconclusive = small, poorly fitted or top-dose-only effect; inactive = flat fitted curve, though single readings scatter. The list shows a part of the results.

Test: Acumen qHTS Assay for Inhibitors of the mTORC1 Signaling Pathway in MEF (Tsc2-/-, p53-/-) Cells: Sytravon;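 also: plate controls were DMSO for no effect and rapamycin for full effect; nearly all actives have a fitted effect of over 50% in size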
Details: phospho-rpS6 immunofluorescence/PI, 24 h; series mostly up to 38.3 µM; activity change, negative = inhibition: at the top concentration
Method in brief: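 Tsc2-/-, p53-/- mouse embryonic fibroblasts (empty-vector line) exposed to compound 24 hrs at 37 C, fixed, immunostained for phospho-rpS6 and counterstained with propidium iodide. Acumen laser scanning gives % positive cells from Alexa 488/PI ratio, thresholded using 7.5 nM rapamycin; PI count gives viability.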

Activity change, negative = inhibition, inactive:
COc1ccc(Br)cc1CNC(=O)CCSCc1ccc(Cl)cc1 0%
CCC(=O)N1CCc2cc(CNS(=O)(=O)c3cc(Cl)ccc3OC)ccc21 11.9%
Cc1nn(CC(=O)N2CCN(c3ccccc3)CC2)c(=O)c2cc3sccc3n12 4.15%
Cc1ccc(OCCn2c(COc3ccc(Cl)cc3)nc3ccccc32)cc1 -20.4%
CCC(C)NC(=O)Cn1cnc2sc(C)c(S(=O)(=O)N3CCN(c4ccccc4OC)CC3)c2c1=O (configuration not stated) 5.42%
Cc1c(C(=O)Nc2cccc(Cl)c2)oc2ccc(S(=O)(=O)N3CCOCC3)cc12 7.87%
COc1cccc(NC(=O)N2CCC(CN3CCOCC3)CC2)c1 -2.6%
Cc1cccc(N2CCN(S(=O)(=O)c3c(C)nc4scc(C)n4c3=O)CC2C)c1 (configuration not stated) 2.1%
Cc1ccc(CCNC(=O)CN2N=C(c3ccc(C)cc3)CCC2=O)cc1 -0.293%
CCc1ccccc1NC(=O)Cn1c(=O)ccc2cc(S(=O)(=O)N3CCC(C)CC3)ccc21 -1.39%
CC1CCN(C(=O)c2ccc(NC(=O)c3nsc4ccccc34)cc2)CC1 0.301%
CCOC(=O)c1sc(NC(=O)c2nc3nc(C)cc(C(F)F)n3n2)c(C(=O)OC)c1C 4.04%
CCOc1cccc(C2c3c(oc4cc(C)c(C)cc4c3=O)C(=O)N2c2nc(C)c(C)s2)c1 (configuration not stated) 2.22%
COc1cccc(-c2cc(C(=O)Nc3cccnc3Cl)no2)c1 9.09%
Cc1ccc(NC(=O)CN2C(=O)C(C)(C)c3cc(S(=O)(=O)N4CCCCC4)ccc32)c(Br)c1 -5.58%
Cn1nc(C(=O)Nc2ccccc2C#N)c2c1-c1ccccc1SC2 1.03%
CCOc1ccc(Nc2oc(/C=C/c3cc(OC)c(OC)c(OC)c3)nc2C#N)cc1 -11.5%
O=C(COC(=O)c1cc(-c2cccs2)nc2ccccc12)c1ccc(Cl)cc1 1.37%
COc1cc(C(=O)NCCSc2c(C)[nH]c3ccccc23)cc(OC)c1OC -1.06%
COc1ccc(NC(=O)CN(C)S(=O)(=O)c2cnc[nH]2)cc1 0.18%
CCOc1ccc(NC(=O)CSc2nc3ccccc3c(=O)n2CCC(=O)NC2CCCCC2)cc1 -0.384%
O=C(NC1CC(=O)N(c2ccc(Cl)cc2)C1)C1CCCCC1 (configuration not stated) 0.358%
COc1cccc(NS(=O)(=O)c2cc(-c3cnc(C4CC4)o3)ccc2C)c1 -9.68%
COc1ccc(-c2noc(C3CC(=O)N(c4ccc5c(c4)OCCO5)C3)n2)c(OC)c1 (configuration not stated) -0.568%
COC(=O)c1c(NC(=O)/C(C#N)=C/c2ccc(OC)cc2)sc2c1C(C(=O)OC)CC2 (configuration not stated) -8.29%
CCc1ccccc1NC(=O)[C@H](Cc1ccccc1)N1Cc2ccccc2C1=O 0.608%
COc1ccc(CCNC(=O)CSc2cn(CCNC(=O)c3ccc(OC)c(OC)c3)c3ccccc23)cc1OC -2.49%
Cc1cccc(C)c1NC(=O)CSc1nccn1C -1.04%
CCOc1ccc(CNC(=O)c2cccc(Nc3nc4ccccc4n4nnnc34)c2)cc1OC -23.8%
Cc1ccc(C)c(CN2C(=O)c3ccccc3S(=O)(=O)c3ccc(C(=O)N4CCN(Cc5ccccc5)CC4)cc32)c1 -15.9%
CC(C)Cn1c(SCc2cccc(F)c2)nc2ccsc2c1=O 0.243%
CCOc1ccc(NC(=O)c2oc3ccccc3c2NC(=O)C(C)Oc2ccccc2)cc1 (configuration not stated) -10.4%
CC(=O)c1cc2c(cc1N/C(=N/S(=O)(=O)c1ccc(C)cc1)c1ccc(Cl)cc1)OCO2 -3.14%
O=C(CCn1c(=O)c2cccn2c2cccnc21)NCc1cccc(Br)c1 2.91%
Cc1ccc2c(=O)cc(C(=O)Nc3ccc(S(=O)(=O)N4CCCC(C)C4)cc3)oc2c1C (configuration not stated) 1.7%
COc1ccc(-c2cn3c(n2)sc2cc(C(=O)NCc4ccccc4)ccc23)cc1 -3.04%
Cc1ccc(CNc2c(C)c(C)nc3nncn23)cc1 -5.85%
COc1ccc(OC)c(C2CC(=O)Nc3ccc4ccccc4c32)c1 (configuration not stated) -25.9%
COc1ccc(Cc2nc3ccc(C(=O)NCCc4ccc(Cl)cc4)cc3o2)cc1 -0.876%
CCN(C(=O)CCS(=O)(=O)c1cc(Br)cc2c1N(C(=O)C1CC1)CC2)c1cccc(C)c1 -7.77%
Cc1ccc(C)c(C(=O)N2CCC(c3nc4c(nnn4Cc4ccccc4)c(=O)[nH]3)CC2)c1 -11.7%
COc1ccccc1C1=Nn2c(nc3sc(C(=O)Nc4ccccc4Cl)c(C)c3c2=O)SC1 -1.39%
CCOCCCn1c(SCC(=O)Nc2ccccc2OC)nc2c(oc3ccccc32)c1=O -2.73%
COc1ccc(C2c3cc(OC)c(OC)cc3CC(=O)N2c2cccc(C#N)c2)cc1 (configuration not stated) 4.72%
CCOc1ccccc1N1CC(c2nc3ccccc3n2CCCCOc2ccccc2)CC1=O (configuration not stated) 1.25%
CC(NC(=O)c1c(O)nc2ccccn2c1=O)c1ccccc1 (configuration not stated) -5.84%
CCOC(=O)c1ccc(NC(=O)C2=C(C)C(=O)OC23CCN(C(C)=O)CC3)cc1 0.807%
CCOC(=O)c1cccc(NC(=O)c2cc(C)nc3c2c(C)nn3-c2ccc(C)cc2)c1 -16.6%
COc1cc(Nc2nc3ccc(Cl)cc3nc2-n2nc(C)cc2C)cc(OC)c1 -1%
O=C(CN1C(=O)COc2ccc(S(=O)(=O)NC3CCCC3)cc21)NCc1ccccc1Cl -1.07%
Cn1ncc2c(Nc3cccc(C#N)c3)ncnc21 -12.7%
CCc1cccc(C)c1NC(=O)CSc1n[nH]c(-c2ccccc2)n1 13.2%
COc1cc(NC(=O)CCN2CCN(c3ccccc3)CC2)cc(OC)c1 10.2%
Cc1cc(C)cc(NC(=O)C(=O)NCC(c2cccnc2)N2CCOCC2)c1 (configuration not stated) -18%
Cc1ccccc1OCCSc1nnc(-c2cccs2)o1 -0.453%
CCC(C(=O)NCCC(C)C)N(C(=O)Cn1nnc(-c2ccc(C)cc2)n1)c1cccc(O)c1 (configuration not stated) 0.284%
Cc1ccc(NC(=O)Cn2c(=O)n(CCC(C)C)c(=O)c3cccnc32)cc1C -1.22%
COc1ccc(Cl)cc1NC(=O)Cn1c(=O)n(Cc2ccc(F)cc2)c(=O)c2cccnc21 -1.51%
CC1CN(C(=O)N2CCC(C(=O)NCc3ccccc3F)CC2)c2cc(Cl)ccc2O1 (configuration not stated) 1.56%
COc1ccccc1N1CCN(C(=O)Cn2c(=O)nc(-c3ccccc3)c3ccccc32)CC1 0%
CCOc1ccc(NC(=O)C(C)n2c(=O)cc(-c3ccccc3)c3c(C)nn(C)c32)cc1 (configuration not stated) -13.4%
CCOC(=O)c1c(C)[nH]c(C)c1S(=O)(=O)N1CCCC(C(=O)N2CCN(c3cccc(Cl)c3)CC2)C1 (configuration not stated) -2.95%
